In assay [1] the target is T1, human ASGR1, full length, on cells (human, UniProt P07306 1-291).
T1 sequence (looked up): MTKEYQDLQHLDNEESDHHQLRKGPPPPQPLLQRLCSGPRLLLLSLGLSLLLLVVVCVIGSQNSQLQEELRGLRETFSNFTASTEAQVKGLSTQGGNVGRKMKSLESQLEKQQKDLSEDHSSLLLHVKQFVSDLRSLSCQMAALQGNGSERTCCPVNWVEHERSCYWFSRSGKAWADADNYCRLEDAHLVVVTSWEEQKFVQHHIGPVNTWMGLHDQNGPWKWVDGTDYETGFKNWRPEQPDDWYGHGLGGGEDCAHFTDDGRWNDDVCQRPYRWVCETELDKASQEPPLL
The assay can be described thus: cell-based or functional assay.

In assay [2] the target is T2, human ZNRF3 extracellular domain (hZNRF3 ECD) (human, UniProt Q9ULT6 56-219, biotinylated (His-Avi tag)).
T2 construct: Expressed with a His-Avi tag at the N-terminus and biotinylated; also called ZRNF3
T2 sequence: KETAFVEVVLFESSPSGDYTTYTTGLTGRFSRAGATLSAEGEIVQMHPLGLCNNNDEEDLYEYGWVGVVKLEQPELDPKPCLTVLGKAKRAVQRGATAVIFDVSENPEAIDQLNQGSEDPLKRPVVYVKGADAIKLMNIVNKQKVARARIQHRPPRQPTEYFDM
The assay can be described thus: BLI (Octet), biotinylated ZNRF3 ECD on SA sensor. As to the method: (§1) Affinity measurement: Binding kinetics of the RSPO-derived proteins to LGRS, RNF43, or ZNRF3, and binding of the anti-ASGR Fabs to human and/or mouse ASGR1 were determined by bio-layer interferometry (BLI) using Octet Red 96 (PALL ForteBio, Fremont, CA) instruments at 30° C., 1000 rpm with either streptavidin (SA) or anti-hIgG Fc capture (AHC) biosensors. […] Following capture of ECDs of RNF43, ZNRF3 or LGRS, the biosensors were dipped into wells containing the relevant test molecules at 7 different concentrations in running buffer plus a well with only running buffer as a reference channel. KD was determined by steady-state analysis based on the average responses between 140 to 145 seconds of association phase, for binding to LGRS, RNF43, and ZNRF3. For the binding to ASGR, KD was determined by curve model fitting using the Octet® Red data analysis software (Fortebio)

Assay [3] deals with T3, human RNF43 extracellular domain (hRNF43 ECD) (human, UniProt Q68DV7 44-197, biotinylated (His-Avi tag)).
T3 construct: Expressed with a His-Avi tag at the N-terminus and biotinylated; also called human RNF3 (Q44-D198)
T3 sequence: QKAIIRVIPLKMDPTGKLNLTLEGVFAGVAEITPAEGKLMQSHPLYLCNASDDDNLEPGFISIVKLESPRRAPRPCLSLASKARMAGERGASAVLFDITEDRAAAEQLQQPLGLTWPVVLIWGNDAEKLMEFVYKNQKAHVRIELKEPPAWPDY
The assay can be described thus: BLI (Octet), biotinylated RNF43 ECD on SA sensor. As to the method: as §1

Assay [4] has as its target T4, Fc portion of human IgG1-fused LGR5-ECD (R&D systems) (human, UniProt O75473 22-557, limits assumed).
T4 construct: extracellular domain; Bought reagent; also called LGRS; recombinant LGR5 protein; not shown: Fc portion of human IgG1
T4 sequence (looked up): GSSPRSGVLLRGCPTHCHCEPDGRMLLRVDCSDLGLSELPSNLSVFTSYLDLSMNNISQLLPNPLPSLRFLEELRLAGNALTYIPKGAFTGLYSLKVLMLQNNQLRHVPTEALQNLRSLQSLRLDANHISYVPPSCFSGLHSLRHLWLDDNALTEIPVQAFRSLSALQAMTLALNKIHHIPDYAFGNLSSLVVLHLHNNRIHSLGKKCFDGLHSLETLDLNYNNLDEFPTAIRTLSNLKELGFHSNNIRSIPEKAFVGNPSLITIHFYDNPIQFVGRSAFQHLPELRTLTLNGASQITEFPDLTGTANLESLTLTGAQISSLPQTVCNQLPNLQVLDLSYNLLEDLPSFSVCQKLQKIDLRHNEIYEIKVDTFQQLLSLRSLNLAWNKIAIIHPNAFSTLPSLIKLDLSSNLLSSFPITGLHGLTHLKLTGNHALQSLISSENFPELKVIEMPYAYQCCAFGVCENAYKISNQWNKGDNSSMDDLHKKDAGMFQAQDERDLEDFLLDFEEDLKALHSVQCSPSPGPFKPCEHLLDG
The assay can be described thus: BLI (Octet), LGR5-ECD-Fc on AHC sensor. As to the method:
as §1

B1: αASGR1-RSPO2-WT (anti-ASGR1, RSPO2 wild type) (other)
chain: [letters of about 100 residues omitted]DFSSRRWYLEYWGQGTLVTVSSGGGGSGGGGSGGGGSELTQDPAVSVALGQTVRITCQGDSLRSYYASWYQQKPGQAPVLVIYGKNNRPSGIPDRFSGSSSGNTASLTITGAQAEDEADYYCNSLERIGYLSYVFGGGTKLTVLGSGGSNPICKGCLSCSKDNGCSRCQQKLFFFLRREGMRQYGECLHSCPSGYYGHRAPDMNRCARCRIENCDSCFSKDFCTKCKVGFYLHRGRCFDECPDGFAPLEETMECVEGGDYKDDDDKGSHHHHHHHH
notes: scFv of an ASGR1 antibody (e.g., RO-01) fused to the N-terminus of the RSPO2 fragment; FLAG-His tag
Turning to B1, the “shift of the STF dose response curve in Huh-7 STF cells” value in assay [1] was about 6 fold. For the same molecule, the binding result in assay [2] and in assay [3] was “binds” throughout.

B2: αASGR1-RSPO2-5mut (anti-ASGR1, RSPO2 (R65A/R69A/Q70A/F105A/F109A)) (other)
chain: [letters of about 100 residues omitted]DFSSRRWYLEYWGQGTLVTVSSGGGGSGGGGSGGGGSELTQDPAVSVALGQTVRITCQGDSLRSYYASWYQQKPGQAPVLVIYGKNNRPSGIPDRFSGSSSGNTASLTITGAQAEDEADYYCNSLERIGYLSYVFGGGTKLTVLGSGGSNPICKGCLSCSKDNGCSRCQQKLFFFLRAEGMAAYGECLHSCPSGYYGHRAPDMNRCARCRIENCDSCRSKDACTKCKVGFYLHRGRCFDECPDGFAPLEETMECVEGGDYKDDDDKGSHHHHHHHH
notes: scFv of an ASGR1 antibody fused to the RSPO2 fragment with five mutations; FLAG-His tag; also called αASGR1-RSPO2-Smut
Take B2: the binding result in assay [4], in assay [2] and in assay [3] was “no binding” each time.

The values above are taken from US20210380678A1 (SURROZEN OPERATING, published 2021).
